# About 2,200 (0.71%) of roughly 310,000 compounds showed an effect of 50% or more. Effects have a minus sign here. This is one part of the list.
# Target: human ether-à-go-go-related gene (hERG) potassium channel (human, UniProt Q12809)
# Assay: primary screen, population patch clamp on CHO cells stably expressing hERG
# Sequence of human ether-à-go-go-related gene (hERG) potassium channel (Q12809 whole entry, looked up): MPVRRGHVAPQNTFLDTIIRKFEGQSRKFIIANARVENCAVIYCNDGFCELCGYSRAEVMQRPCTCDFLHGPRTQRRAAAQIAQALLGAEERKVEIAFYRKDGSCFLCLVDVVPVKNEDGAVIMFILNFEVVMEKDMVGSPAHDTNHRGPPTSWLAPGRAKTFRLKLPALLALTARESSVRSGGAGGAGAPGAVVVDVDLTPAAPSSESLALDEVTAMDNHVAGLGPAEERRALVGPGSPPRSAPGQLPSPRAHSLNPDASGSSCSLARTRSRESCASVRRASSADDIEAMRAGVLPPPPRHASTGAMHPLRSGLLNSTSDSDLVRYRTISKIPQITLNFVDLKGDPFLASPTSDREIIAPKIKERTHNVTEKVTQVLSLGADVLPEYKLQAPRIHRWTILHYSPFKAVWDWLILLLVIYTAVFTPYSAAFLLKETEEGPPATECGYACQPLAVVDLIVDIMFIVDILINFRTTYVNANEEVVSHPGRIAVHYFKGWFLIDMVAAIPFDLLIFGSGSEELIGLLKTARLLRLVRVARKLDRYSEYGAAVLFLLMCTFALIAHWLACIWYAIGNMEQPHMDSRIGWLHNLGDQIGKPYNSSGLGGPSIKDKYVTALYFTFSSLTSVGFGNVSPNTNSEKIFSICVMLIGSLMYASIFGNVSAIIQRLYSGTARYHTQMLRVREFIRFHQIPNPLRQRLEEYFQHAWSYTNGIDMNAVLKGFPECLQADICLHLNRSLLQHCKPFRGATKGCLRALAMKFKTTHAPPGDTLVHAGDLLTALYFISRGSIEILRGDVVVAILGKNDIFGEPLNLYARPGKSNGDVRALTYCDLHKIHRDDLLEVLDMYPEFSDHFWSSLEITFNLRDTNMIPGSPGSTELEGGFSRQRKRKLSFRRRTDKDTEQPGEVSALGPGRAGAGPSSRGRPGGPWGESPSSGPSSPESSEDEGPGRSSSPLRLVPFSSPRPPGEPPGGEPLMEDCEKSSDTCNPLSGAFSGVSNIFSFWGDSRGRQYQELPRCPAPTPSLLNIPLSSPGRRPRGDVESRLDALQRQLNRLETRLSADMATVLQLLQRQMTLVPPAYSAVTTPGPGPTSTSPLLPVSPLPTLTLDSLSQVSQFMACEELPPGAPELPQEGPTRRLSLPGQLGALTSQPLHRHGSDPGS
row,Compound,"hERG current change (%, negative = inhibition) at 1uM [%]"
1,OCCN(CCO)c1ncnc2c1sc1nc(N3CCOCC3)c3c(c12)CCCC3,2.45
2,CCOC(=O)C1(C)/C(=N/Nc2cccc(Cl)c2)C(=O)C(=O)N1c1ccccc1 (stereo not drawn),11.3
3,CC(C)NC(=S)NNc1nc2ccccc2s1,3.34
4,NC(=O)c1ccc[n+](Cc2cccc3ccccc23)c1.[Br-],10.3
5,CC1CCc2cc(F)ccc2N1C(=O)c1ccncc1 (stereo not drawn),11.2
6,O=C(C1CC(c2ccccc2O)=NO1)N1CCc2ccccc2C1 (stereo not drawn),17.5
7,Cc1sc(NC(=O)c2ccc(F)cc2)c(CN2CCCCCC2)c1C,0.206
8,CCc1nnc(NS(=O)(=O)c2ccc(NC(=O)c3cc(Cl)ccc3OC)cc2)s1,9.12
9,O=C(CCC1CCN(C(=O)c2ccco2)CC1)NCc1ccc(F)cc1,-62
10,COc1ccc(CNC(=O)CN(Cc2ccccc2)C(=O)CCC(=O)Nc2nccs2)cc1,14
11,O=C(CSC(=S)N1CCCCC1)Nc1nc(-c2ccccc2)c(-c2ccccc2)o1,-11.6
12,O=C1CCCc2sc3c(c2N1)CCCCC3,-0.78
13,COc1nccnc1NS(=O)(=O)c1ccc(NC(=S)NC(=O)/C=C/c2ccccc2)cc1,3.31
14,COc1ccc(-c2nn3c(-c4cccc(C)c4)nnc3s2)cc1OC,18.3
15,O=C(NCCC1CCCCN1S(=O)(=O)c1ccccc1)C(=O)NCC1CCCO1 (stereo not drawn),7.26
16,CCCCCC(=O)NNC1=NCC(Cc2ccccc2)S1 (stereo not drawn),3.18
17,Cc1cccnc1CN1CCN(C(=O)CCc2nnc(CCc3ccccc3)o2)CC1,16.8
18,CC1NC(=O)N(C)C2NC(=O)N(C)C(c3ccccc3)C12 (stereo not drawn),11.1
19,CCCC(O)(c1ccc(Cl)cc1)C(CN1CCOCC1)c1ccccc1 (stereo not drawn),6.75
20,Cc1ccc(/C=N\NC(=O)c2ccc3c(c2)OCO3)o1,12.7
21,CSc1cccc(NC(=O)CN(C2CCCCC2)S(C)(=O)=O)c1,2.65
22,CCOc1ccc(N(CC(=O)NCc2ccccc2C)S(C)(=O)=O)cc1,-3.2
23,Cc1ccc(C(=O)N/C(=C\c2ccccc2)C(=O)NCc2cccnc2)cc1,-41.8

row,Compound,"hERG current change (%, negative = inhibition) at 1uM [%]"
1,COc1cccc(-n2nnnc2SCC(=O)Nc2ccc(NC(C)=O)cc2)c1,9.32
2,O=C(N=C1SC2CS(=O)(=O)CC2N1Cc1ccccc1Cl)C1CC1 (stereo not drawn),10.1
3,COc1ccccc1CNC(=O)c1cnn2c(C(F)F)cc(C)nc12,-1.86
4,COc1cccc(C(CC(=O)NCCN2CCOCC2)NS(=O)(=O)c2ccc(C)cc2)c1OC (stereo not drawn),10.2
5,O=C(c1ccc([N+](=O)[O-])cc1)N1CCC(n2nnc3cc(F)ccc32)CC1,-14.5
6,CC(C)N(CCO)Cc1nc(C(c2ccccc2)c2ccccc2)no1,12
7,COc1ccccc1OC(=O)c1cc(Cl)nc2ccccc12,13.6
8,Cc1ccccc1-c1nc(SCc2ccccn2)c2c(=O)n(C)c(=O)n(C)c2n1,16.5
9,COc1ccc(Cl)cc1NC(=O)c1cc(-c2ccccc2)on1,15.2
10,Nc1ccc(-n2nncc2-c2ccc(Cl)cc2)cc1,-20.7
11,O=C(CSC1=NS(=O)(=O)c2cc(Cl)ccc2N1)NCc1ccccc1,6.77
12,O=C(COc1ccccc1)NCC(=O)NC1CCCCC1,9.67
13,CSC(=S)N/N=C/c1ccc(N(C)C)cc1,10.8
14,Cc1cc(C(=O)CN2C(=O)C(=O)N(C3CCCC3)C2=O)c(C)n1CCc1ccc(F)cc1,-1.74
15,O=C(Nc1nnc(-c2ccc(F)cc2)o1)c1cccc([N+](=O)[O-])c1,0.0123
16,CCOC(=O)c1csc(NC(=O)CC2CCCC2)n1,-5.99
17,Clc1ccccc1-c1nc2ccccc2[nH]1,9.27
18,CCOc1ccccc1NC(=O)CSc1nnc(CNC(=O)c2cccs2)o1,14.7
19,Cc1cccc(N2N=C(C(=O)Nc3nc(C)cs3)CCC2=O)c1,8.88
20,CN1CCN(CCC(=O)Nc2ccccc2)CC1,6.64
21,Cc1cccc[n+]1CC(=O)c1ccc(NC(=O)c2ccccc2)cc1.[Br-],18.6
22,Cc1cccc(C)c1OCCCN1CCOCC1.Cl,6.52
23,Nc1nonc1-n1nnc(C(=O)N/N=C/c2ccc3c(c2)OCO3)c1-c1ccccc1,16.9

row,Compound,"hERG current change (%, negative = inhibition) at 1uM [%]"
1,CCCCN(CC)CCCNC(=O)c1cn(C)c2ccc(S(=O)(=O)N(C)C3CCCCC3)cc2c1=O,-66.6
2,CCn1cc(CNC(=S)Nc2cccc(Cl)c2C)cn1,6.82
3,Cc1cc(C(=O)CSc2nncn2C)c(C)n1-c1ccccc1,13.3
4,COC(=O)c1c(NC(=O)CN(c2ccccc2)S(C)(=O)=O)sc2c1CCCC2,15.5
5,Cc1ccc(C(=O)NC(C)c2ccc(C)c(C)c2)s1 (stereo not drawn),4.15
6,CN(CC(=O)Nc1ccc(F)cc1)C(=O)C1CCN(S(=O)(=O)c2ccc3c(c2)OCCO3)CC1,1.49
7,COc1cccc(C(=O)N2CCCC(CCC(=O)NCc3ccc(F)c(F)c3)C2)c1 (stereo not drawn),-3.6
8,Cc1ccc(OCC(=O)Nc2ccccc2N2CCCC2)c(C)c1,16.6
9,Cc1ccc(/C=N/NC(=O)CSc2nc3ccccc3c(=O)n2-c2ccccc2C)s1,-9.7
10,CCOC(=O)C1C(=O)NC(c2ccccc2)=NC1c1ccc(OC)cc1 (stereo not drawn),1.03
11,CCOC(=O)Cc1c(C)nc2c(C#N)c(C)nn2c1C,-2.82
12,CCOc1ccc(CN2CCNC(=O)C2CC(=O)NCc2csc(C)n2)cc1 (stereo not drawn),11.2
13,C/C(=N\O)C(C)NC(=O)c1ccccc1 (stereo not drawn),15.9
14,OCCC1CN(Cc2ccc3nsnc3c2)CCN1C1CCCC1 (stereo not drawn),-0.378
15,O=C(O)CCCC(=O)Nc1nc(-c2ccccc2)cs1,7.36
16,Cc1ccc(S(=O)(=O)Nc2ccccc2N2CCOCC2)cc1,9.74
17,Cc1c(CCC(=O)NCCCn2ccnc2)c(=O)oc2cc3oc4c(c3cc12)CCCC4,-6.14
18,O=C(Oc1cccc(C(=S)N2CCOCC2)c1)c1ccc([N+](=O)[O-])cc1[N+](=O)[O-],-1.22
19,O=C(Nc1ccc(S(=O)(=O)N2CCC(C(=O)NC3CCCCC3)CC2)cc1)c1ccco1,13.3
20,CCCCCC(=O)N/N=C/c1ccccc1[N+](=O)[O-],18
21,CC(C)OCCCNCc1cccs1,3.82
22,COc1ccc(Cn2c(C3CC3)nc3ccc(NC(=O)c4ccco4)cc3c2=O)cc1,8.43
23,CC(=O)Nc1sc2c(c1C#N)CCN(Cc1ccccc1)C2.Cl,14.9

row,Compound,"hERG current change (%, negative = inhibition) at 1uM [%]"
1,Cc1ccc(NS(=O)(=O)c2ccc3c(c2)n(C)c(=O)c(=O)n3C)c(C)c1,8.07
2,COC(=O)C1C(=O)C(C(=O)c2ccccc2)C(=O)CC1(C)C (stereo not drawn),2.02
3,C/C(=N\O)C(C)(C)Nc1ccccc1F,-0.0536
4,Cc1cc2cc(CNC(=S)Nc3ccc(OC(F)(F)F)cc3)ccc2n1C,19.5
5,CCN(CC)c1ccc(-c2nn3c(-c4ccccc4OC)nnc3s2)cc1,19.3
6,O=c1cc2ncc(-c3[nH]ncc3[N+](=O)[O-])cn2[nH]1,14.6
7,COc1ccc(OC)c(NC(=O)CCc2nnc3ccc(N4CCC(C)CC4)nn23)c1,4.58
8,Cc1cc(Br)ccc1NC(=O)CNC(=O)CSc1ncccn1,0.756
9,COc1ccc(CC(=O)Nc2nccs2)cc1OC,-4.27
10,O=[N+]([O-])c1ccccc1S(=O)(=O)NCc1cccnc1,13.1
11,O=c1[nH]c(O)c(N=Nc2cc([N+](=O)[O-])ccc2O)c(=O)[nH]1,7
12,COCCCNC(=O)c1cccn2c(=O)c3cc4ccccc4cc3nc12,-8.65
13,CCOC(=O)N1CCN(C(=O)CCNS(=O)(=O)c2ccc3c(c2)c(=O)n(C)c(=O)n3C)CC1,19.1
14,COc1ccc(OC)c(NS(=O)(=O)c2c(C)nc3sccn3c2=O)c1,-2.3
15,CCCc1cc(=O)[nH]c(SCC(=O)NCCCC(=O)OCC)n1,5.89
16,O=C(Nc1ccc2c(c1)OCCO2)c1cccs1,5.45
17,COc1ccc(CNC(=O)C(C)OC(=O)C23CC4CC(CC(O)(C4)C2)C3)cc1 (stereo not drawn),17.8
18,CC(=O)Nc1ccc(S(=O)(=O)NC2(C(F)(F)F)C(=O)Nc3c2c(=O)[nH]c(=O)n3Cc2cccnc2)cc1 (stereo not drawn),16.5
19,CCOc1cc(N2CCOCC2)c(OCC)cc1NC(=O)CN1CCN(Cc2ccc3c(c2)OCO3)CC1.Cl,-12.2
20,CC(=O)Nc1ccc2nc(NC(=O)C(Cl)(Cl)Cl)sc2c1,4.61
21,CCOc1ccc(-n2c(-c3ccco3)nc3c(cnn3-c3ccc(C)cc3)c2=O)cc1,8.79
